The supplement of paper PMC4604168 (melanoma cell lines)
The list shows a part of the results. Many values rest on one well or one pass, so single values are uncertain.

The compounds below were run on G361 (assay: cell count relative to DMSO control; melanoma cells; higher = more viable cells). Conditions: library dose: low library concentration; 72 h.
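Further: cell number obtained by counting DAPI-stained nuclei in high-throughput microscope images with image analysis software, screen run in 1,536-well plates.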

SMILES | cell count [%]
CN1CCN(c2ccc3nc(-c4c(N)c5c(F)cccc5[nH]c4=O)[nH]c3c2)CC1 [Dovitinib] + O=C(O)[C@@H]1[O][Sb](=[O])([O][Sb]2(=[O])[O][C@H]([C@H](O)CO)[C@H](O)[C@H](C(=O)O)[O]2)[O][C@H]([C@H](O)CO)[C@@H]1O [stibogluconate] (first compound 0.1 µM, partner dose 2 µM) | 101
C=CCNC1=C2C[C@@H](C)C[C@H](OC)[C@H](O)[C@@H](C)/C=C(\C)[C@H](OC(N)=O)[C@@H](OC)/C=C\C=C(/C)C(=O)NC(=CC1=O)C2=O [Tanespimycin] + COc1ccc(Cl)c(Nc2nc3ccccc3nc2NS(=O)(=O)c2cccc(NC(=O)C(C)(C)N)c2)c1 [XL147] (first compound 0.002 µM, partner dose 0.8 µM) | 107
CN1CCN(c2ccc3nc(-c4c(N)c5c(F)cccc5[nH]c4=O)[nH]c3c2)CC1 [Dovitinib] + Nc1ncn([C@H]2C[C@H](O)[C@@H](CO)O2)c(=O)n1 [decitabine] (first compound 0.1 µM, partner dose 0.1 µM) | 94.8
C[C@@H](Oc1cc(-c2cnn(C3CCNCC3)c2)cnc1N)c1c(Cl)ccc(F)c1Cl [Crizotinib] + Cc1nc(Nc2ncc(C(=O)Nc3c(C)cccc3Cl)s2)cc(N2CCN(CCO)CC2)n1 [dasatanib] (first compound 0.2 µM, partner dose 0.004 µM) | 87.4
CS(=O)(=O)CCNCc1ccc(-c2ccc3ncnc(Nc4ccc(OCc5cccc(F)c5)c(Cl)c4)c3c2)o1 [lapatinib] + CC(=O)c1c(C)c2cnc(Nc3ccc(N4CCNCC4)cn3)nc2n(C2CCCC2)c1=O [palbociclib] (first compound 0.8 µM, partner dose 0.04 µM) | 85.9
